The other results are listed elsewhere or left out.

We go through six molecules from paper PMC12136788.

First the molecules themselves.
T1: UNK ZnF1-3 (human, UniProt Q9C0B0 31-174)
T1 sequence: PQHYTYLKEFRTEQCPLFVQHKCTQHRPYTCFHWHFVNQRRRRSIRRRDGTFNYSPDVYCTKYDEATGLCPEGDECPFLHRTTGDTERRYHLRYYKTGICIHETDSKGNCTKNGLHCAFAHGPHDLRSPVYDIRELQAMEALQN

B1: 9960549_9963260_328_CDS_ENSMUSG00000024287_ENSMUST00000025137|mouse|control|control (ssRNA)
RNA: GGGAGUUCUACAGUCCGACGAUCUGACUUCCAAGUAGCAACAUUUUUUUCAACAAAAGUGAAUAUUGUGUCACACUGAUCCAAAGGAAGGCAGUCUAAGACAUCUCCCAAUAGCACAAAUGGUGUGGACGCAGUACAAACACUCAACAGAGGAUUGAGCAUCA
B2: chr2:47387792:47387793:-_ENSG00000143933_ENST00000272298|hu_hu|hu_hu_hu_mus_True|18_18 (ssRNA)
RNA: GGGAGUUCUACAGUCCGACGAUCUAAGGACAAUGACAGUAAGAUAAGGGAAGAAAACAUGGAGGAAUGAAGUCCUAAUUACUAUACAUGCAUAUUUUUUGACAGUAGGGGGGGGGACUUUUACAGAGAUAAGUUACAAACAAACAACAGAGGAUUGAGCAUCA
B3: chr2:26350769:26350770:+_ENSG00000084733_ENST00000264710|hu_mus|FALSE|FALSE (ssRNA)
RNA: GGGAGUUCUACAGUCCGACGAUCGAUGUCUUCAGCUAAUGUGAGGAACGCCUUUUCGAUGUUUAUAUUUGCUUUUGCACUAGUCUCAAAAAACCUAAUACCAUGCUCCCUUGCAAUCUGUUCUCCUUUGCCUUUCGGUACAACCAACAGAGGAUUGAGCAUCA
B4: chr7:54825262:54825263:-_ENSG00000132432_ENST00000352861|hu_hu|hu_hu_hu_mus_False|88_98 (ssRNA)
RNA: GGGAGUUCUACAGUCCGACGAUCCUGCCGGCUGGGCACAAACUGCAUUACCUGAUCAUCCAUGUUUGUUGGAUGGCGGAUUGAGAGCGUAGAGACACGUAGCUCAGGAGAGAACCGAGCCCAACGGAACCGGAAGCUGGCAACCAACAGAGGAUUGAGCAUCA
B5: 24910103_24910223_1147_CDS_ENSG00000107863_ENST00000396432|human|control|control (ssRNA)
RNA: GGGAGUUCUACAGUCCGACGAUCAGGUUGUGUCAGUACUGGUGUACUGGUUUGCUGUUUGCUCAAUGAUGAGUCAGGAGGAGAUAUUUCAACUGGCUGUGCCAUGGCUGAUGGGGCAGAUGGCAGCCAGGGAUAGCAGAUUGGCAACAGAGGAUUGAGCAUCA
B6: chr17:7144716:7144717:-_ENSG00000170296_ENST00000577035|hu_mus|FALSE|FALSE (ssRNA)
RNA: GGGAGUUCUACAGUCCGACGAUCCUGGUACAGCUGACCCAUCGUGGCACUGGUGGGUGGAAUGACAUUGUUGACAAAGAAAAACAAGGCAUCUUCAGCACGGAGAUGAAUUCGCUUCCGGAUCAAGAAGUAGAAUUGACCAACCAACAGAGGAUUGAGCAUCA

This experiment has as its target T1, UNK ZnF1-3. As to the kind of experiment: nsRBNS (natural sequence RNA bind-n-seq); RBNS binding buffer (assumed for nsRBNS): 25 mM Tris pH 7.5, 150 mM KCl, 3 mM MgCl2, 0.01% Triton X-100, 500 ug/ml BSA, 20 U/ml SUPERase-In, 4 C; UNK is unkempt and MSI1 is Musashi-1; names of the RNAs are library labels; protein concentration not given here; high values mean tight binding.
B1: the binding signal stood at 1.52 enrichment R.
The molecule B2 gave a binding signal of 2.53 enrichment R.
The molecule B3 registered a binding signal of 0.453 enrichment R.
In turn, B4 displayed a binding signal of 1.24 enrichment R.
For B5, the binding signal stood at 0.877 enrichment R.
In the case of B6 it was 1.43 enrichment R.
